Measurements from PubChem BioAssay AID485344 (National Center for Advancing Translational Sciences (NCATS), 2010).
The whole screen tested about 340,000 compounds, of which about 6,900 (2%) were called active. Cut-off read from the data, not from the text of the source: active = inhibition above about 30%; inactive = below that, where a call was filed. The entries are a selection whose mix differs from that of the whole data set. The source gives no active or inactive call for entries shown without one.
Note: 0% is about no effect.

The compounds below were run against D(2) dopamine receptor (Homo sapiens) (UniProt P14416) (assay: HTS Assay for Allosteric Antagonists of the Human D2 Dopamine Receptor: Primary Screen for Antagonists). Details: HEK293 TREx D2 cells, calcium flux, dopamine EC80; at 10 µM; stronger effect = higher value.
Chain of UniProt P14416 (P14416 whole entry, looked up): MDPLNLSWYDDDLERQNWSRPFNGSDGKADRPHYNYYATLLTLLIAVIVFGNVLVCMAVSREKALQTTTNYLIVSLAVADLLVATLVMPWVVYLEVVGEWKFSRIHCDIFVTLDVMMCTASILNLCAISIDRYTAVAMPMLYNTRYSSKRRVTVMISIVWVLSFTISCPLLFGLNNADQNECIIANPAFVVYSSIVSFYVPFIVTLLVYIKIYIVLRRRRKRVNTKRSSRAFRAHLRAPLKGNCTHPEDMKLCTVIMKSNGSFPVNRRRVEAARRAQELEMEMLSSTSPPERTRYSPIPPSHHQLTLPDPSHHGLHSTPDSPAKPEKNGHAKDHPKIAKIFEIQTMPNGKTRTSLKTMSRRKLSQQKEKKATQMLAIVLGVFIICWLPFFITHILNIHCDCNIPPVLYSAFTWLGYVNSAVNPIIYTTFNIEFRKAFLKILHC
In short: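 Calcium mobilization kinetics were recorded at 1 s intervals in tetracycline-induced HEK293 T-REx D2 cells, first for 180 s after compound addition and then 180 s after EC80 dopamine.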
With `CCOc1ccccc1CNC(=O)CCCn1c(=O)c2cccn2c2ccc(F)cc21` the inhibition was -13.5%.
With `CCOc1ccc(S(=O)(=O)Nc2ccc3c(c2)CCCN3S(=O)(=O)c2ccc(C)cc2)cc1` the inhibition was -1.18%.
With `Cc1ccc(-n2nnnc2CN2CCCCC2)cc1` the inhibition was active: 37.8%.
`CCOC(=O)c1cc(S(=O)(=O)N(C)c2ccccc2)[nH]n1` gave an inhibition of 22.6%.
`Cc1ccc(S(=O)(=O)N(Cc2cccnc2)Cc2cc3ccccc3[nH]c2=O)cc1` was tested, and the inhibition was active: 93.9%.
With `Cc1ccc(CNC(=O)c2cc(NS(=O)(=O)c3ccc(C)cc3)ccn2)cc1` the inhibition was -10.7%.
`O=C(NCC(c1ccco1)S(=O)(=O)c1cccs1)c1c(F)cccc1F` (stereo not drawn) was tested, and the inhibition was 14%.
`CCN(CC)C(=O)c1sc2c(c1C)c(=O)n(Cc1ccccc1)c(=O)n2Cc1c(C)cc(C)cc1C` was tested, and the inhibition was -15.2%.
With `CC(C)c1nc(SCC(=O)Nc2ccc(N(C)C)cc2)c2ccccc2n1` the inhibition was active: 33.9%.
For `OC(COc1ccc2c(c1)CCC2)CN1CCN(c2cccc(Cl)c2)CC1` (stereo not drawn), the inhibition was active: 39.2%.
Compound `Cc1cccc(NC(=O)Cn2c(=O)n(CC3CCC(C(=O)NCCc4ccccc4)CC3)c(=O)c3ccccc32)c1C` (stereo not drawn) has an inhibition of 1.72%.
In the case of `Cc1ccc2[nH]c(C)c(CCNC(=O)c3cc4cc(Br)ccc4oc3=O)c2c1`, the inhibition is reported as -2.43%.
For `Cc1nn(-c2ccc(N3CCCC3)nn2)c(C)c1CCC(=O)N1CCN(c2ccc(F)cc2)CC1`, the inhibition was 2.64%.
In the case of `CCCN(C(=O)c1c(-c2ccccc2)noc1C)c1c(N)n(Cc2ccccc2)c(=O)[nH]c1=O`, the inhibition is reported as active: 65.5%.
`O=C(NCC(c1cccnc1)N1CCc2ccccc21)c1cccc(F)c1` (stereo not drawn) was tested, and the inhibition was -4.2%.
`CCOC(=O)c1ccc(NC(=O)c2c(NCc3ccc(OC)c(OC)c3OC)sc3c2CCC(C)C3)cc1` (stereo not drawn) was tested, and the inhibition was -19.8%.
With `COc1ccc(OCC(=O)N2CCN(C(=O)c3cccc(OC)c3OC)CC2)cc1` the inhibition was -16%.
With `CCCCN(C(=O)CCn1c(=O)oc2ccccc21)c1ccccc1` the inhibition was -1.01%.
Compound `CCOc1ccc(-c2cc(CCCC(=O)NCCc3ccc(SC)cc3)no2)cc1` has an inhibition of 8.85%.
`COCCn1c(C)cc(O)c(C(c2ccccc2Cl)N2CCN(c3ccccc3)CC2)c1=O` (stereo not drawn) was tested, and the inhibition was 0.948%.
For `COC(=O)c1ccc(NC(=O)CN(C)S(=O)(=O)c2ccc3c(c2)CCCC(=O)N3)cc1`, the inhibition was -2.41%.
In the case of `COc1ccc(Cl)cc1NC(=O)COc1cccc2c(=O)n(C)ccc12`, the inhibition is reported as 16.2%.
`CCCCNC(=O)Cn1nc(N2CCN(c3ccccc3OC)CC2)ccc1=O` showed an inhibition of -4.34%.
With `CC(C)N(C(=O)CN1C(=O)C(=O)c2ccccc21)c1ccccc1` the inhibition was active: 36.2%.
Compound `CCn1cc(S(=O)(=O)c2cc(C)cc(C)c2)c(=O)c2cc(F)c(N3CCN(c4ccccc4)CC3)cc21` has an inhibition of 0.548%.
`COc1cccc(C(=O)N2CCc3cc(OC)c(OC)cc3C2COc2ccc3c(C)cc(=O)oc3c2)c1` (stereo not drawn) gave an inhibition of -14.4%.
`O=S(=O)(c1cccc(NC(=S)Nc2ccc(Br)cc2Cl)c1)N1CCOCC1` was tested, and the inhibition was active: 37.8%.
Work on `CCOc1ccc(C(c2c(O)cc(C)n(CCOC)c2=O)N2CCN(c3ccc(F)cc3)CC2)cc1` (stereo not drawn) yielded an inhibition of 4.77%.
`Cc1sc2ncn(CC(=O)N3CCN(c4cccc(Cl)c4)CC3)c(=O)c2c1S(=O)(=O)N1CCC(C)CC1` showed an inhibition of -13.4%.
`Cc1cccc2cc(-c3nc(-c4cccs4)no3)c(=O)oc12` gave an inhibition of 6.7%.
For `CCN(CC)C(=O)Cn1c(=O)n(CCCCCC(=O)NCc2ccc(C)cc2)c(=O)c2sccc21`, the inhibition was -2.34%.
Compound `CC(=O)N1CCc2c(sc3c2c(=O)n(-c2cc(Cl)ccc2C)c(=O)n3C)C1` has an inhibition of 6.9%.
For `CCOc1ccc(-n2c(=O)c3c(C)c(C)sc3n(Cc3ccc(C(C)(C)C)cc3)c2=O)cc1`, the inhibition was 7.52%.
With `Fc1ccc(NCc2ccccc2-c2nnc(-c3ccccc3Cl)o2)cc1Cl` the inhibition was 9.32%.
`CCc1ccc(-c2cc(C)no2)cc1S(=O)(=O)NCc1ccc(OC)cc1` was tested, and the inhibition was -6.4%.
With `CCCn1nnnc1NCc1ccc(SC)cc1` the inhibition was active: 36.9%.
Compound `N#C/C(=C/c1ccccc1Cl)c1nc(-c2cc3ccccc3oc2=O)cs1` has an inhibition of -6.82%.
In the case of `O=C(Cn1c(=O)n(CC2CCCO2)c(=O)c2ccccc21)Nc1ccc(F)cc1F` (stereo not drawn), the inhibition is reported as -25.3%.
`COC(=O)c1cc(NC(=O)Cn2nc(-c3ccccc3)c3c(c2=O)CCCC3)cc(C(=O)OC)c1` showed an inhibition of -2.2%.
Work on `COC(=O)c1cc2sc(C)cc2n1Cc1nc(-c2cccc(Br)c2)oc1C` yielded an inhibition of 3.67%.
With `CCOC(=O)C1CCN(c2csc3ccc(C)cc3c2=O)CC1` the inhibition was -10.7%.
`CC(C)(C)OC(=O)N1CCC(c2c(C(=O)N3CCN(c4ccccc4F)CC3)cnn2C(C)(C)C)CC1` was tested, and the inhibition was -0.902%.
In the case of `CCc1nnc(SC(CC)C(=O)NCCOC)c2cc3occc3n12` (stereo not drawn), the inhibition is reported as -3.47%.
With `CN1CCN(C(=O)c2cnn(-c3ccccc3)c2C2CCN(C(=O)OC(C)(C)C)CC2)CC1` the inhibition was 2.77%.
`CCOc1ccccc1N(C)C(=O)c1cc(S(=O)(=O)NCc2ccc(C)cc2)ccc1F` showed an inhibition of 15.3%.
`CCc1cccc(NC(=O)Cn2c(=O)n(Cc3ccccc3)c(=O)c3c(C)c(C(=O)N(C)C)sc32)c1` was tested, and the inhibition was -1.24%.
In the case of `Cc1cccc(NC(=O)CSc2nc(C)cc(C)c2C(=O)Nc2ccc(Cl)cc2)c1`, the inhibition is reported as 20.5%.
`Cc1ccc(C)c(NC(=O)Cn2cc(S(=O)(=O)N3CCCC3)c(S(=O)(=O)N3CCCC3)c2)c1` showed an inhibition of 0.373%.
`COc1ccc(Cl)cc1NC(=O)c1cc(=O)c2cc(C)cc(C)c2o1` was tested, and the inhibition was 0.0849%.
In the case of `CCc1nn2c(=O)cc(COC(=O)c3cccc(NC(=O)COc4ccccc4F)c3)nc2s1`, the inhibition is reported as -2.31%.
`COc1cc(NC(=O)CN(C)S(=O)(=O)c2ccc3c(c2)CCCC(=O)N3)cc(OC)c1OC` gave an inhibition of 14.4%.
`CCC(=O)C1=C(c2cccc([N+](=O)[O-])c2)N(C(=O)CC)n2c(nnc2C2CCCCC2)S1` gave an inhibition of -20.8%.
For `COc1ccc(-c2nc3ccccc3o2)cc1NC(=O)COc1c(C)cc(Cl)cc1Cl`, the inhibition was -7.13%.
`COc1ccccc1N1CCN(CC(=O)c2c(C)[nH]c3cc(C)ccc23)CC1` was tested, and the inhibition was active: 63.9%.
In the case of `CC(=O)Nc1ccc(C)cc1NC(C)=O`, the inhibition is reported as active: 34.8%.
Work on `Cc1ccccc1-c1nc(CS(=O)(=O)CC(=O)Nc2c(C)cccc2C)c(C)o1` yielded an inhibition of -11.9%.
`COc1ccc(-c2cc(C(C)=O)c(C)n2CCC(=O)Nc2cccc(C)c2C)cc1` showed an inhibition of 16.7%.
Compound `O=C(Cn1c2ncccc2c(=O)n1-c1ccccc1)Nc1cccc(C(F)(F)F)c1` has an inhibition of 1.87%.
In the case of `O=C(CSc1nc2ccccc2c2nc(-c3ccccc3)nn12)Nc1ccc(F)cc1`, the inhibition is reported as -2.49%.
In the case of `Cn1c(=O)oc2cc(NC(=O)CCl)ccc21`, the inhibition is reported as active: 31.9%.
Compound `COc1ccc(N2C(=O)CS(=O)(=O)C23C(=O)N(Cc2ccccc2)c2ccccc23)cc1` (stereo not drawn) has an inhibition of 10.4%.
In the case of `COc1cccc(-c2nc(S(=O)(=O)c3ccc(C)cc3)c(NCc3ccccc3)o2)c1`, the inhibition is reported as 3.7%.
For `CCN1CCN(c2cc(C)c3cc(NC(=O)c4cc(OC)c(OC)c(OC)c4)ccc3n2)CC1`, the inhibition was -4.01%.
`CCOc1ccc(-c2nc(CSCC(=O)NCCc3ccccc3)c(C)o2)cc1` was tested, and the inhibition was -5.69%.
With `Clc1cccc(N2CCN(c3nc4ccccc4c4nc(-c5ccccc5)nn34)CC2)c1` the inhibition was 3.11%.
Compound `Cn1c(=O)cc(SCC(=O)NCCc2ccc(Cl)cc2)c2cc(Cl)ccc21` has an inhibition of 19.3%.
`CCc1ccc2oc(C(=O)N(Cc3cccc(Cl)c3)Cc3ccco3)c(C)c2c1` was tested, and the inhibition was -12.8%.
`Cc1cc(C)cc(NC(=O)Cn2c(=O)n(CCC(C)C)c(=O)c3cccnc32)c1` was tested, and the inhibition was -26.9%.
In the case of `COc1cccc(CNC(=O)CCCn2c(=O)c3cccn3c3ccc(F)cc32)c1OC`, the inhibition is reported as 15%.
`COC(=O)c1cc2oc(C)cc2n1CC(=O)Nc1ccc(OC)c(OC)c1` gave an inhibition of -0.197%.
`FC(F)(F)c1ccnc(N2CCN(Cc3cnc(-c4ccccc4)[nH]3)CC2)c1` was tested, and the inhibition was active: 89.5%.
For `COC(=O)c1ccc(NC(=O)CSc2nccn2Cc2ccc(Cl)cc2)cc1`, the inhibition was 10.8%.
`CCOc1ccc(-n2c(=O)c3c(C)c(C)sc3n(Cc3c(F)cccc3Cl)c2=O)cc1` was tested, and the inhibition was -10.9%.
`COc1ccc(N2CCN(C(=O)CCc3nnc4n(C)c(=O)c5sccc5n34)CC2)cc1` was tested, and the inhibition was -16.4%.
`CCCC(=O)Nc1nc2c(s1)CC(C(C)(C)C)CC2` (stereo not drawn) gave an inhibition of 5.39%.
`CC1(C)N=C(c2ccc(F)cc2)C(=O)N1CC(=O)Nc1ccccc1Cl` was tested, and the inhibition was 2.9%.
With `COc1ccc(-n2c(=O)c3ccc(C(=O)NCc4ccc(C)cc4)cc3n(Cc3ccc(F)cc3Cl)c2=O)cc1` the inhibition was 7.62%.
Compound `Cc1ccc(Cn2c3ccccc3c3cnn(CC(=O)N4CCCCCC4)c(=O)c32)cc1` has an inhibition of 4.21%.
For `COc1ccc(-n2nc3c(c2NC(=O)C(=O)NCc2ccccc2)CSC3)cc1`, the inhibition was 17.1%.
`Cc1ccc(CN2C(=O)CC(c3ccc(Cl)cc3)c3c(C)nn(-c4nc(C)cc(C)n4)c32)cc1` (stereo not drawn) was tested, and the inhibition was 17.6%.
For `CCC(=O)N1CCc2cc(S(=O)(=O)CCC(=O)Nc3ccc(C)cn3)ccc21`, the inhibition was active: 64.4%.
`COc1cc(NC(=O)CN2C(=O)C(c3ccc(C)cc3)=NC23CCCCCC3)cc(OC)c1` was tested, and the inhibition was 1.7%.
In the case of `CC(=O)Nc1c(C)nn(-c2ccccc2)c1N1CCC(C(=O)Nc2ccc(Cl)cc2C)CC1`, the inhibition is reported as -7.18%.
For `CC12C(=O)N(c3ccccc3C(=O)O)C(=O)C1C1C=CC2C1` (stereo not drawn), the inhibition was active: 36.2%.
Compound `Cc1cc(O)c(C(c2ccccc2)N2CCN(c3ccccc3F)CC2)c(=O)n1Cc1ccco1` (stereo not drawn) has an inhibition of -2.29%.
For `O=C(c1ccco1)N1CCN(Cc2cccc(F)c2)CC1`, the inhibition was active: 84.3%.
With `CCC(=O)N1CCc2cc(Br)cc(S(=O)(=O)CCC(=O)NCc3ccc(C)cc3)c21` the inhibition was -5.95%.
In the case of `Cc1ccc(OCCCCN2CCc3ccccc3C2)c(C)c1`, the inhibition is reported as active: 75.9%.
`COc1ccc(CNC(=O)C(=O)Nc2ccccc2OC)cc1` showed an inhibition of -20.9%.
In the case of `COC(=O)c1sc(S(=O)(=O)N2CCN(c3ccc(OC)cc3)CC2)c(C(=O)OC)c1C`, the inhibition is reported as 13.7%.
`COc1ccc(CNC(=O)c2ccc(NC(=O)N3CCCCc4ccccc43)cc2)c(OC)c1` showed an inhibition of -22.9%.
`Cc1cc(SCC(=O)NCc2ccccc2Cl)nc(=O)[nH]1` showed an inhibition of 27.9%.
Work on `Cc1cccc(-c2nc(C)c(CCNC(=O)C(=O)Nc3c(C)cc(C)cc3C)s2)c1` yielded an inhibition of -14.1%.
